{"source": "PubChem BioAssay AID504845", "about": "(National Center for Advancing Translational Sciences (NCATS), 2011)", "note": "Among all 390,000 compounds or so, about 150 (0.038%) were called active. This list was built around the results that the source calls inconclusive (neither active nor inactive); the mix of calls is not that of the screen. Calls follow the shape of the dose curve; as a rule, active = well fitted inhibition curve with a large enough effect; inconclusive = small, poorly fitted or top-dose-only effect; inactive = no such curve, though single readings can be large or run the other way. Where the call is inconclusive, the potency comes from a doubtful curve fit."}
{"target": "Regulator of G-protein signaling 4 (Homo sapiens) (UniProt P49798)", "sequence (P49798 whole entry, looked up)": "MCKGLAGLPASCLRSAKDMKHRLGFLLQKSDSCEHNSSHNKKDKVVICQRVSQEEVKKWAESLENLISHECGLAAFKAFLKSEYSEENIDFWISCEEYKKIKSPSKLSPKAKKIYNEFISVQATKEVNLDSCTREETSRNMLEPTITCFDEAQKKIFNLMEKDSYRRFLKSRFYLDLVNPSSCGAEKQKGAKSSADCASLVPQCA", "assay": "Inhibitors of Regulator of G Protein Signaling (RGS) 4: qHTS; also: nearly all actives have a fitted effect of over 75% in size; also: potency is read from the fitted curve at half-maximal effect; tags tell the direction and shape of the fitted curve; as to activity change, negative = inhibition: % is scaled to controls: 0 for no effect and ±100 for the full control effect", "settings": "Transcreener GDP fluorescence polarization, RGS4-accelerated GTP hydrolysis; series mostly up to 114 µM", "in_short": "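MLSMR compounds (23 nl, pin-transferred) preincubated 10 min at room temperature with a 500nM (2x) first reagent, then RGS4 at 900nM (2x) plus Transcreener GDP mix added; fluorescence polarization (620/688 nm) read before and after 90 min at 30 °C.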"}
{"compound": "COc1ccc(N2CCN(C3CCCN(Cc4cccc(C)c4)C3)CC2)cc1", "note": "(stereo unspecified)", "Potency": "inactive"}
{"compound": "Cc1nnc(SCC(=O)NC(C)c2ccccc2)[nH]c1=O", "note": "(stereo unspecified)", "Potency": "inconclusive: 79.4 µM [inhibitor, single point]"}
{"compound": "O=C(Cn1c(/C=C/c2ccccc2)nc2ccccc21)Nc1ccc(F)cc1", "Potency": "inconclusive: 17.8 µM [inhibitor, full curve, poor fit]"}
{"compound": "NC(=O)CN1CCCN(S(=O)(=O)c2ccc(Br)cc2)CC1", "Potency": "inactive"}
{"compound": "O=C(C1CC(=O)N(c2ccc(F)cc2)C1)N1CCN(c2ccccc2)CC1", "note": "(stereo unspecified)", "Potency": "inconclusive: 100 µM [inhibitor, single point]"}
{"compound": "CC(Sc1nc(-c2ccccc2)cs1)C(=O)Nc1ccc(Cl)cn1", "note": "(stereo unspecified)", "Potency": "inconclusive: 70.8 µM [inhibitor, partial curve, poor fit]"}
{"compound": "Oc1cc2c(cc1C(c1ccc(Cl)c(Cl)c1)N1CCCC1)OCO2", "note": "(stereo unspecified)", "Potency": "inconclusive: 39.8 µM [inhibitor, partial curve, poor fit]"}
{"compound": "COc1ccccc1CNC(=O)c1cc(-c2ccncc2)nc2c(Cl)cccc12", "Potency": "inconclusive: 89.1 µM [inhibitor, single point]"}
{"compound": "CCOc1ccccc1NC(=O)CSc1ccc(-c2ccco2)nn1", "Potency": "inconclusive: 70.8 µM [inhibitor, partial curve, poor fit]"}
{"compound": "COc1cccc(C2CC(=O)N3CN(c4ccccc4F)CSC3=C2C#N)c1", "note": "(stereo unspecified)", "Potency": "inconclusive: 44.7 µM [inhibitor, partial curve, poor fit]"}
{"compound": "S=c1[nH]nc(-c2cc(-c3ccccc3)n[nH]2)n1/N=C/c1ccc(Br)s1", "Potency": "inconclusive: 39.8 µM [inhibitor, partial curve, poor fit]"}
{"compound": "COc1ccccc1OCC(=O)N/N=C1\\CCCCc2ccccc21", "Potency": "inactive"}
{"compound": "COCCNS(=O)(=O)c1ccc2c(c1)Cc1cc(S(=O)(=O)NCCOC)ccc1-2", "Potency": "inconclusive: 25.1 µM [inhibitor, full curve, poor fit]"}
{"compound": "Clc1ccccc1COc1ccc(/C=N/n2cnnc2)cc1", "Potency": "inconclusive: 100 µM [inhibitor, single point]"}
{"compound": "CCOc1ccc(C(=O)Nc2cccc(NC(=O)c3ccc(Cl)cc3Cl)c2)cc1", "Potency": "inconclusive: 44.7 µM [inhibitor, partial curve, poor fit]"}
{"compound": "CCCCCCCCCCCCCCCC[N+](C)(C)Cc1ccc(F)cc1", "Potency": "inactive"}
{"compound": "Cc1ccc(N/N=C/c2c(C)c(C#N)c(=O)n(C)c2O)cc1C", "Potency": "inconclusive: 17.8 µM [inhibitor, full curve, poor fit]"}
{"compound": "COc1cc([N+](=O)[O-])ccc1NC(=O)N1CCC2(CC1)Nc1ccccc1-n1cccc12", "Potency": "inactive"}
{"compound": "O=C(COc1ccccc1/C=C\\c1[nH]c(=O)[nH]c(=O)c1[N+](=O)[O-])Nc1ccccc1", "Potency": "inconclusive: 56.2 µM [inhibitor, partial curve, poor fit]"}
{"compound": "CCOc1ccc(CN2C(=O)C(=O)c3cccc(C)c32)cc1OC", "Potency": "inconclusive: 70.8 µM [inhibitor, single point]"}
{"compound": "CCOC(=O)c1ccc(-n2c(CN3CCC(O)CC3)nc3ccc([N+](=O)[O-])cc3c2=O)cc1", "Potency": "inactive"}
{"compound": "CC1(C)CC(=O)C=C(NC2=CC3OC(c4ccccc4)OCC3OC2=O)C1", "note": "(stereo unspecified)", "Potency": "inconclusive: 44.7 µM [inhibitor, partial curve, poor fit]"}
{"compound": "COc1ccc(C(=O)NC(=S)Nc2ccc(Cc3ccncc3)cc2)cc1", "Potency": "inconclusive: 17.8 µM [inhibitor, full curve, poor fit]"}
{"compound": "Cc1cccn2c(=O)c3cc(C#N)c(=O)n(-c4nnc(SCc5ccc(F)cc5)s4)c3nc12", "Potency": "inconclusive: 17.8 µM [inhibitor, full curve, poor fit]"}
{"compound": "CC(=O)Nc1ccc2c(c1)-c1ccc(F)cc1C2=O", "Potency": "inconclusive: 79.4 µM [inhibitor, single point]"}
{"compound": "CC1CC(C)(C)N(C(=O)CN2C(=O)c3ccccc3C2=O)c2ccccc21", "note": "(stereo unspecified)", "Potency": "inactive"}
{"compound": "N#Cc1ccccc1Cn1c(=O)n(Cc2ccc(C(=O)NCc3ccco3)cc2)c(=O)c2ccccc21", "Potency": "inconclusive: 89.1 µM [inhibitor, single point]"}
{"compound": "CC1Cc2cc(/C=C3/SC(N4CCC(C(N)=O)CC4)=NC3=O)ccc2O1", "note": "(stereo unspecified)", "Potency": "inactive"}
{"compound": "Cc1ccc(C)c(N2CCN(S(=O)(=O)c3cc(C(=O)Nc4ccccc4C(F)(F)F)ccc3F)CC2)c1", "Potency": "inactive"}
{"compound": "COc1ccc(C2NC(=S)NC(O)(C(F)(F)F)C2C(=O)c2cccs2)cc1", "note": "(stereo unspecified)", "Potency": "inconclusive: 79.4 µM [inhibitor, partial curve, poor fit]"}
{"compound": "COc1ccc(S(=O)(=O)N2CCC(n3c(C)nc4cccnc43)CC2)cc1Cl", "Potency": "inactive"}
{"compound": "Cc1ccc(C)c(NS(=O)(=O)c2cc(C(=O)N3CCCC3)ccc2Cl)c1", "Potency": "inconclusive: 50.1 µM [inhibitor, partial curve, poor fit]"}
{"compound": "COc1ccc(CNC(=O)COC(=O)/C=C/c2ccco2)cc1", "activity change, negative = inhibition": "inactive: -2.35% [at 11.4 µM]"}
{"compound": "CC(=O)c1ccc2noc(-c3ccc(Cl)cc3)c2c1", "Potency": "inactive"}
{"compound": "Cc1ccc(C(=O)Nc2ccc(N3CCN(C(=O)c4cccs4)CC3)cc2)c(Cl)c1", "Potency": "inconclusive: 50.1 µM [inhibitor, partial curve, poor fit]"}
{"compound": "CC(=O)c1cccc(N=Nc2c(-c3ccccc3)[nH]n(-c3ccccc3)c2=O)c1", "Potency": "inconclusive: 89.1 µM [inhibitor, partial curve, poor fit]"}
{"compound": "Cc1nc(-c2ccccc2)sc1C(=O)O", "Potency": "inactive"}
{"compound": "O=C(NC1CCCCCCC1)c1cc(-c2ccccn2)nc2ccccc12", "Potency": "inconclusive: 56.2 µM [inhibitor, partial curve, poor fit]"}
{"compound": "COc1cccc(-n2nnc3c(=O)n(Cc4ccc(Br)cc4)cnc32)c1", "Potency": "inactive"}
{"compound": "C/C(=N\\NC(=O)c1cccnc1)c1ccc(OC2OCCOC2Oc2ccc(/C(C)=N/NC(=O)c3cccnc3)cc2)cc1", "note": "(stereo unspecified)", "Potency": "inconclusive: 28.2 µM [inhibitor, full curve, poor fit]"}
{"compound": "CCOC(=O)c1c(NC(=O)CN2CCCc3ccccc32)sc(C)c1CC", "Potency": "inconclusive: 79.4 µM [inhibitor, partial curve, poor fit]"}
{"compound": "O=S(=O)(Nc1ncccn1)c1ccc(NC(=S)N2CCN(Cc3ccc(F)cc3Cl)CC2)cc1", "Potency": "inconclusive: 79.4 µM [inhibitor, partial curve, poor fit]"}
{"compound": "O=c1c2cc(Br)ccc2[nH]c(=S)n1Cc1cccnc1", "Potency": "inconclusive: 89.1 µM [inhibitor, single point]"}
{"compound": "O=C(Cc1csc(N2CCOCC2)n1)N/N=C/c1ccc(O)c(O)c1O", "Potency": "inconclusive: 31.6 µM [inhibitor, partial curve, poor fit]"}
{"compound": "CCOC(=O)c1cc(-c2ccccc2)sc1NC(=O)CC", "Potency": "inconclusive: 50.1 µM [inhibitor, partial curve, poor fit]"}
{"compound": "N#CC(C#N)=NNc1ccc(S(=O)(=O)N2CCCCC2)cc1", "Potency": "inconclusive: 17.8 µM [inhibitor, full curve, poor fit]"}
{"compound": "COc1ccc2oc(=O)c(-c3cn4ccc(C)cc4n3)cc2c1", "Potency": "inactive"}
{"compound": "Cc1ccccc1Cn1c(=O)n(Cc2ccco2)c(=O)c2sc3ccccc3c21", "Potency": "inactive"}
{"compound": "COc1ccc(/C=N/NC(=O)c2ccncc2)cc1[N+](=O)[O-]", "activity change, negative = inhibition": "inactive: 20.9% [at 11.4 µM]"}
{"compound": "Cc1ccccc1Oc1nc2c(C)cccn2c(=O)c1/C=C(\\C#N)C(=O)Nc1c(C)n(C)n(-c2ccccc2)c1=O", "Potency": "inconclusive: 20 µM [inhibitor, full curve, poor fit]"}
{"compound": "Cc1ccc(N2C(=O)[C@@H]3[C@H](C2=O)C2c4ccccc4C=CN2[C@@H]3C(=O)c2ccco2)c(C)c1", "note": "(stereo partly specified)", "Potency": "inactive"}
{"compound": "O=C(Nn1cnnc1)c1ccc(Br)s1", "Potency": "inconclusive: 89.1 µM [inhibitor, single point]"}
{"compound": "O=C(N=Nc1c(O)[nH]c2ccccc12)c1cccc(S(=O)(=O)Nc2ccccc2Cl)c1", "Potency": "inconclusive: 50.1 µM [inhibitor, partial curve, poor fit]"}
{"compound": "Cc1[nH]n(-c2ccccc2)c(=S)c1C=NCCCN=Cc1c(C)[nH]n(-c2ccccc2)c1=S", "Potency": "inconclusive: 39.8 µM [inhibitor, partial curve, poor fit]"}
{"compound": "Cc1cc(=O)oc(C)c1C(=O)Nc1c(C)n(C)n(-c2ccccc2)c1=O", "Potency": "inactive"}
{"compound": "O=C(O)c1ccc(NS(=O)(=O)c2ccc3c(c2)C2C=CCC2C(c2ccccc2F)N3)cc1", "note": "(stereo unspecified)", "Potency": "inconclusive: 50.1 µM [inhibitor, partial curve, poor fit]"}
{"compound": "N#C/C(=C/c1ccc(N2CCCCCC2)o1)c1cccc(F)c1", "Potency": "inconclusive: 28.2 µM [inhibitor, full curve, poor fit]"}
{"compound": "COc1ccc(NC(=O)c2c(Nc3ccccc3)sc(C(=O)c3ccc(F)cc3)c2N)cc1", "Potency": "inconclusive: 89.1 µM [inhibitor, single point]"}
{"compound": "O=C1CSCN1c1cc(Cl)ccc1Cl", "Potency": "inconclusive: 89.1 µM [inhibitor, single point]"}
{"compound": "CC(/C=C/c1ccccc1)=N\\Nc1nc(C)cc(C)n1", "Potency": "inactive"}
{"compound": "Cc1cc(C)cc(NC(=S)NCC2CCN(C(C)c3ccccc3)C2)c1", "note": "(stereo unspecified)", "Potency": "inactive"}
{"compound": "COc1ccc(/C=C/CN2CCCC(CCC(=O)NCc3ccc(F)c(F)c3)C2)cc1", "note": "(stereo unspecified)", "Potency": "inactive"}
{"compound": "COc1ccc(NC(=S)Nc2ncccc2C)c(OC)c1", "Potency": "inactive"}
{"compound": "Cc1ccc([N+](=O)[O-])cc1N(CC(=O)Nc1ccc(S(=O)(=O)Nc2cccc(C(F)(F)F)c2)cc1)S(C)(=O)=O", "Potency": "inactive"}
{"compound": "CCn1c(SCC(=O)N2CCCC2)nc2ccccc2c1=O", "Potency": "inactive"}
{"compound": "Clc1ccc(C=NN2CCCCCC2)cc1Cl", "Potency": "inactive"}
